Five molecules from publication PMC5779705 can be followed below.

Holding throughout (assay): co-IP; lysates of log-phase doubly tagged S. cerevisiae strains; anti-c-myc MicroBeads (μMACS) 30 minutes on ice; Western blot with anti-GFP/Venus antibody; for Paf1-myc and Cdc73-Venus also in leo1Δ and rtf1Δ strains
Experiment [1] deals with T1, C-terminally myc-tagged Ctr9 (S. cerevisiae) (UniProt P89105).
T1 sequence: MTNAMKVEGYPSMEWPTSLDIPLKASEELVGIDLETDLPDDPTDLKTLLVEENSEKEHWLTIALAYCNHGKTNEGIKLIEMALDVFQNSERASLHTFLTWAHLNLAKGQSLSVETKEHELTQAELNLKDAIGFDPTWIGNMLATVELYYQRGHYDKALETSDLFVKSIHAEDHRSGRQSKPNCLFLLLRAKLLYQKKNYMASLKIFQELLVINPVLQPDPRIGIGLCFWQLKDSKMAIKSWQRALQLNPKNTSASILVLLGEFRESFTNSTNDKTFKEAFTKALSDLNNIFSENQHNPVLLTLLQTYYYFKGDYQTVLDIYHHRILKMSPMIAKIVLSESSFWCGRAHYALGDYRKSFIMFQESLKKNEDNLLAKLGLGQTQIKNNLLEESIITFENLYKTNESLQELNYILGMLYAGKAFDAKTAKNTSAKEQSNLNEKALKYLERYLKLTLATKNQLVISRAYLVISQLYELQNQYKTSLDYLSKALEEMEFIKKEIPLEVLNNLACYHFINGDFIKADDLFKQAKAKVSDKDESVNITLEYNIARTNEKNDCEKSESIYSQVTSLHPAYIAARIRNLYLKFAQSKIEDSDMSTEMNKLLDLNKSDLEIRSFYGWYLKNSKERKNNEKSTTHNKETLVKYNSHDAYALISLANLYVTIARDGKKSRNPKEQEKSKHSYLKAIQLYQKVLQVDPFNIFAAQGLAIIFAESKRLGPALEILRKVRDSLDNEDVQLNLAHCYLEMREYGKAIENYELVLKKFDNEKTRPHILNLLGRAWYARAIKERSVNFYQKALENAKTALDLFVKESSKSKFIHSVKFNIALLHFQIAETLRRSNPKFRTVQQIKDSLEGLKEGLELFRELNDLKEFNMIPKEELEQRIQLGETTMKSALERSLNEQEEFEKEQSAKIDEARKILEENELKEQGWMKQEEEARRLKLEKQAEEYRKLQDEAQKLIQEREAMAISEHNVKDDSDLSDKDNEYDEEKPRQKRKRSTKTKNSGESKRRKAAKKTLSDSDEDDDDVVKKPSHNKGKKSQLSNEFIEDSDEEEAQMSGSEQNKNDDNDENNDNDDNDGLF

For experiment [2], the target named is C-terminally myc-tagged Rtf1 (S. cerevisiae) (UniProt P53064).
Experiment [3] addresses T2, C-terminally myc-tagged Leo1 (S. cerevisiae) (UniProt P38439).
T2 sequence: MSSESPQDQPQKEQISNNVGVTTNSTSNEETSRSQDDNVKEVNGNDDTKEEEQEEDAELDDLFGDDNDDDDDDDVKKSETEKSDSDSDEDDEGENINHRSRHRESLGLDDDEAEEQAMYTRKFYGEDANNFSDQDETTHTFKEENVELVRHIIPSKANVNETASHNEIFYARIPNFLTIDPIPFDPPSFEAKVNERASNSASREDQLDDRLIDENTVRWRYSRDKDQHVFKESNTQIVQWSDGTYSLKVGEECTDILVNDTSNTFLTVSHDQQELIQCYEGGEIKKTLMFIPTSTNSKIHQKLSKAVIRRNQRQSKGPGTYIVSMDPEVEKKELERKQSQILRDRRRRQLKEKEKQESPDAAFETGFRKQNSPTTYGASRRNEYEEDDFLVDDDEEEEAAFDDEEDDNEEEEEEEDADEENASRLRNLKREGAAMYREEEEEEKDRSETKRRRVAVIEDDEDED

The target of experiment [4] is T3, C-terminally myc-tagged Paf1 (S. cerevisiae) (UniProt P38351).
T3 sequence: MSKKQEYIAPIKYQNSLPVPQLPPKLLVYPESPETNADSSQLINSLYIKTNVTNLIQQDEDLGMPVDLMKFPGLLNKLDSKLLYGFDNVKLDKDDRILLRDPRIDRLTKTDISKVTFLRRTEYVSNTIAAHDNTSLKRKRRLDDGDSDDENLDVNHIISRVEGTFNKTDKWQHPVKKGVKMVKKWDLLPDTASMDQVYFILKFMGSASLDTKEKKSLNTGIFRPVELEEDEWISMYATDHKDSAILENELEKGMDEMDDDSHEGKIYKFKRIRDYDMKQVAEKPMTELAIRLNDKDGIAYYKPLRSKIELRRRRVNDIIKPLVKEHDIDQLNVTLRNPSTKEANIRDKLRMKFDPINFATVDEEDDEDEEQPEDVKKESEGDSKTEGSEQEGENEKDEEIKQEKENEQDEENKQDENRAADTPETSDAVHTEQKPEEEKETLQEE

These are yes or no findings as the source states them, for the method shown. Binding seen in cells or lysates may run through a third protein. Some entries that bind do so weakly or less than the wild type. Tags and fused reporters may be left off the sequences shown.

B1: C-terminally Venus-tagged Cdc73Δ2–124 (domain or fragment, UniProt Q06697)
chain: MGETSDKVDIENKTLAGELSTVKSTTSASLENDSEVSDPVVVETMKHERILVDHNSALRGAKPINFGYLIKDAELKLVQSIKGSLRGSKLPPGHKGAHGRISKTNGSSGGPRKDPIILIPSAASSILTVANIKQFLLESKYVNPRNLPSVPNGLVNIEKNFERISRPIRFIIVDNTRMFTKPEYWDRVVAIFTTGHTWQFNNYQWNSPQELFQRCKGYYFHFAGDSVPQHVQQWNVEKVELDKNKRFKDVEVVRYFWHSLEKELISRGYR
Regarding B1, the binding result in experiment [1], in experiment [2] and in experiment [3] was “binds” in each case.

B2: C-terminally Venus-tagged Cdc73Δ230–393 (domain or fragment, UniProt Q06697 1-229)
chain: MANSLDRLREHLKNGDKLVLKNNEGQSTDDITKATMVETLSSDGSTQDSFPLNEETEIEIDGSLVQLRIIVHCWMNKDSSAADYLADCQNKQLTNVSFLQRTDLINWLSGNTESSQYLKAPGQKGETSDKVDIENKTLAGELSTVKSTTSASLENDSEVSDPVVVETMKHERILVDHNSALRGAKPINFGYLIKDAELKLVQSIKGSLRGSKLPPGHKGAHGRISKTNG
As for B2, the binding entry in experiment [1], in experiment [2] and in experiment [3] was “binds” throughout.

B3: C-terminally Venus-tagged Cdc73:125–229 (domain or fragment, UniProt Q06697 125-229)
chain: GETSDKVDIENKTLAGELSTVKSTTSASLENDSEVSDPVVVETMKHERILVDHNSALRGAKPINFGYLIKDAELKLVQSIKGSLRGSKLPPGHKGAHGRISKTNG
With B3, the binding result in experiment [1], in experiment [2] and in experiment [3] was “binds” each time.

B4: C-terminally Venus-tagged full-length Cdc73 (protein, UniProt Q06697 1-393)
chain: MANSLDRLREHLKNGDKLVLKNNEGQSTDDITKATMVETLSSDGSTQDSFPLNEETEIEIDGSLVQLRIIVHCWMNKDSSAADYLADCQNKQLTNVSFLQRTDLINWLSGNTESSQYLKAPGQKGETSDKVDIENKTLAGELSTVKSTTSASLENDSEVSDPVVVETMKHERILVDHNSALRGAKPINFGYLIKDAELKLVQSIKGSLRGSKLPPGHKGAHGRISKTNGSSGGPRKDPIILIPSAASSILTVANIKQFLLESKYVNPRNLPSVPNGLVNIEKNFERISRPIRFIIVDNTRMFTKPEYWDRVVAIFTTGHTWQFNNYQWNSPQELFQRCKGYYFHFAGDSVPQHVQQWNVEKVELDKNKRFKDVEVVRYFWHSLEKELISRGYR
Consider B4, for which the binding entry in experiment [1], in experiment [2] and in experiment [3] was “binds” throughout.

B5: C-terminally Venus-tagged Cdc73Δ125–229 (domain or fragment, UniProt Q06697)
chain: MANSLDRLREHLKNGDKLVLKNNEGQSTDDITKATMVETLSSDGSTQDSFPLNEETEIEIDGSLVQLRIIVHCWMNKDSSAADYLADCQNKQLTNVSFLQRTDLINWLSGNTESSQYLKAPGQKSSGGPRKDPIILIPSAASSILTVANIKQFLLESKYVNPRNLPSVPNGLVNIEKNFERISRPIRFIIVDNTRMFTKPEYWDRVVAIFTTGHTWQFNNYQWNSPQELFQRCKGYYFHFAGDSVPQHVQQWNVEKVELDKNKRFKDVEVVRYFWHSLEKELISRGYR
Consider B5, for which the binding entry was “binds weakly” in experiment [1], “no binding” in experiment [4], “no binding” in experiment [2] and “binds weakly” in experiment [3].
